{"source": "PubChem BioAssay AID1240", "about": "(Sanford-Burnham Center for Chemical Genomics, 2008)", "note": "In all, about 50,000 compounds went through this assay and about 800 (1.6%) showed an effect of 50% or more. Some of the results follow.", "data": [{"molecular_target": "Bcl-2-like protein 10 (Homo sapiens) (UniProt Q9HD36)", "sequence (Q9HD36 whole entry, looked up)": "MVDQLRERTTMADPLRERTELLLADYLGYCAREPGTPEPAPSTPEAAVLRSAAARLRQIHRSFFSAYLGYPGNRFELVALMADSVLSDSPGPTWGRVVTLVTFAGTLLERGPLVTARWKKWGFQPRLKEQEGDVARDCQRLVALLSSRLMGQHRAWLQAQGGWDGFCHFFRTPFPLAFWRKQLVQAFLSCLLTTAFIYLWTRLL", "assay": "Phenotype converters, Bcl-B/TR3 peptide binding displacement, primary biochemical FP (AID 1240);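 further: 0% = Bcl-B with tracer peptide and DMSO and 100% = tracer peptide lacking Bcl-B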", "settings": "GST-Bcl-B / FITC-TR3 peptide fluorescence polarization; stronger effect = higher value; compound at 3.75 mg/L", "units": {"displacement": "%"}, "values": [{"smiles": "COc1ccccc1N(CC(=O)Nc1cc(C)ccc1C)S(=O)(=O)c1ccccc1", "displacement": 1.4}, {"smiles": "CC(=O)Nc1ccccc1NC(=O)c1cccc([N+](=O)[O-])c1C", "displacement": 2.9}, {"smiles": "Nc1ccccc1N=Cc1nc(-c2ccccc2)oc1O", "displacement": 0.4}, {"smiles": "O=C(O)C(Cc1ccc(O)cc1)c1ccccc1", "note": "(configuration not stated)", "displacement": 5.6}, {"smiles": "Cc1cc2nc(SCc3ccc(Cl)cc3)nc(C)c2cc1C", "displacement": 11}, {"smiles": "c1ccc(CN2CCN(Cc3ccncc3)CC2)nc1", "displacement": -13.8}, {"smiles": "O=C(c1ccc([N+](=O)[O-])cc1)N1CCN(Cc2cccnc2)CC1", "displacement": -10.2}, {"smiles": "COc1cc(/C=C(\\C#N)c2ccc([N+](=O)[O-])cc2)c(OC)cc1Br", "displacement": 14.7}, {"smiles": "COc1ccccc1N=C(NOC(C)=O)c1nonc1N", "displacement": 15}, {"smiles": "CCOC(=O)c1c(NC(=O)C(C)(C)C)sc2c1CCC2", "displacement": 6.6}, {"smiles": "COC(=O)c1cc(NC(=O)c2cc(Br)ccc2OC)cc(C(=O)OC)c1", "displacement": 6.1}, {"smiles": "O=C1C(Cl)=C(Nc2ccc(F)cc2)C(=O)N1c1ccccc1", "displacement": 10.9}, {"smiles": "COc1ccccc1N1CCN(/N=C(\\C)c2ccc(F)cc2)CC1", "displacement": -8.5}, {"smiles": "O=C(c1ccccc1[N+](=O)[O-])N1CCN(c2cccc(Cl)c2)CC1", "displacement": -5.3}, {"smiles": "COc1ccc(NC(=O)C(=O)N/N=C/c2cc(OC)ccc2OC)cc1", "displacement": 19}, {"smiles": "C=CCn1c(NC(=O)c2ccc(C)cc2)nc2ccccc21", "displacement": -14.6}, {"smiles": "O=C(/C=C/c1ccco1)Nc1ccc(O)c(-c2nc3ccccc3o2)c1", "displacement": -39}, {"smiles": "O=C(NC(=S)Nc1ccc(N2CCCCC2)cc1)c1cccs1", "displacement": -7.9}, {"smiles": "CCOC(=O)N1CCN(C(=O)c2ccc([N+](=O)[O-])cc2)CC1", "displacement": -8.4}, {"smiles": "COc1ccc(/C=C/C(=O)NCCSCc2ccc(Cl)cc2)cc1OC", "displacement": -6.5}, {"smiles": "COC(=O)c1ccccc1N1C(=O)c2ccc(C(=O)O)cc2C1=O", "displacement": 14.6}, {"smiles": "CCOC(=O)C(=O)Nc1ccc(S(=O)(=O)Nc2ccc(OC)cc2)cc1", "displacement": -0.2}, {"smiles": "COc1ccc(CSc2nnc(SCc3ccc(OC)cc3)s2)cc1", "displacement": -0.6}, {"smiles": "O=S(=O)(NCc1ccccc1)c1ccc2ccccc2c1", "displacement": 1}, {"smiles": "CNC(=O)C(=O)Nc1ccc(Oc2ccccc2)cc1", "displacement": -4.6}, {"smiles": "O=C(COc1ccc(Br)cc1)Nc1ccc(Nc2ccccc2)cc1", "displacement": 45.7}, {"smiles": "CN(C)c1ccnc2sc(C(=O)c3ccc(Br)cc3)c(N)c12", "displacement": 10}, {"smiles": "COCCOC(=O)c1ccc(NC(=O)COc2cc(C)ccc2C(C)C)cc1", "displacement": -15.3}, {"smiles": "Cc1nc2ccccc2n1CC(O)COc1cccc(Cl)c1", "note": "(configuration not stated)", "displacement": 9.9}, {"smiles": "O=C1/C(=C/c2nc3ccccc3c(=O)n2-c2ccccc2)c2ccccc2N1Cc1ccccc1", "displacement": 0.1}, {"smiles": "CCOC(=O)c1c(N)sc(C(=O)N2CCCC(C(N)=O)C2)c1C", "note": "(configuration not stated)", "displacement": -3.8}, {"smiles": "CN(C)c1ccc(/C=C2\\SC(=S)N(c3ccccc3Cl)C2=O)cc1", "displacement": -13.6}]}]}
